Assay results: the supplement of paper PMC4967469
IC50 is the fitted dose that halves viability relative to control wells, and lower means more sensitive; a fit beyond the top or the lowest dose is shown as a bound at that dose. AUC is the area under the same curve over the 256-fold range up to the top dose, as a fraction; values near 1 show little effect.

Compound: N#CC[C@H](C1CCCC1)n1cc(-c2ncnc3[nH]ccc23)cn1 [Ruxolitinib]
Experiment: Viability of human cancer cell lines after 72 h of drug (GDSC screen)
Procedure: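 Human cancer cell lines in 384-well plates, medium with 10% serum, drug for 72 h over a 256-fold dose range (nine 2-fold or five 4-fold steps up to the top dose). Adherent lines were fixed and stained with the nucleic acid dye Syto60, suspension lines read with resazurin; signal relative to control wells, capped at 0 and 100%. One two-parameter sigmoid per drug and line, fitted in a mixed model over all curves with the slope shared within a line.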

Cell Line: NCI-H23 (lung adenocarcinoma, adherent, top dose 5.24 µM)
- AUC: 0.976
- IC50: > 5.24 µM

Cell Line: NCI-H28 (mesothelioma, adherent, top dose 5.24 µM)
- AUC: 0.978
- IC50: > 5.24 µM

Cell Line: NCI-H64 (small cell lung carcinoma, suspension, top dose 5.24 µM)
- AUC: 0.996
- IC50: > 5.24 µM

Cell Line: NCI-H69 (small cell lung carcinoma, suspension, top dose 5.24 µM)
- AUC: 0.979
- IC50: > 5.24 µM

Cell Line: NCI-H82 (small cell lung carcinoma, suspension, top dose 5.24 µM)
- AUC: 0.988
- IC50: > 5.24 µM

Cell Line: NCI-H187 (small cell lung carcinoma, suspension, top dose 5.24 µM)
- AUC: 0.927
- IC50: > 5.24 µM

Cell Line: NCI-H196 (small cell lung carcinoma, adherent, top dose 5.24 µM)
- AUC: 0.962
- IC50: > 5.24 µM

Cell Line: NCI-H209 (small cell lung carcinoma, suspension, top dose 5.24 µM)
- AUC: 0.909
- IC50: > 5.24 µM

Cell Line: NCI-H211 (small cell lung carcinoma, adherent, top dose 5.24 µM)
- AUC: 0.981
- IC50: > 5.24 µM

Cell Line: NCI-H226 (lung squamous cell carcinoma, adherent, top dose 5.24 µM)
- AUC: 0.987
- IC50: > 5.24 µM

Cell Line: NCI-H292 (lung adenocarcinoma, adherent, top dose 5.24 µM)
- AUC: 0.932
- IC50: > 5.24 µM

Cell Line: NCI-H322M (lung adenocarcinoma, suspension, top dose 5.24 µM)
- AUC: 0.984
- IC50: > 5.24 µM

Cell Line: NCI-H345 (small cell lung carcinoma, suspension, top dose 5.24 µM)
- AUC: 0.99
- IC50: > 5.24 µM

Cell Line: NCI-H441 (lung adenocarcinoma, adherent, top dose 5.24 µM)
- AUC: 0.979
- IC50: > 5.24 µM

Cell Line: NCI-H446 (small cell lung carcinoma, semi-adherent, top dose 5.24 µM)
- AUC: 0.978
- IC50: > 5.24 µM

Cell Line: NCI-H510A (small cell lung carcinoma, semi-adherent, top dose 5.24 µM)
- AUC: 0.97
- IC50: > 5.24 µM

Cell Line: NCI-H520 (lung squamous cell carcinoma, adherent, top dose 5.24 µM)
- AUC: 0.986
- IC50: > 5.24 µM

Cell Line: NCI-H522 (lung adenocarcinoma, adherent, top dose 5.24 µM)
- AUC: 0.979
- IC50: > 5.24 µM

Cell Line: NCI-H524 (small cell lung carcinoma, suspension, top dose 5.24 µM)
- AUC: 0.988
- IC50: > 5.24 µM

Cell Line: NCI-H526 (small cell lung carcinoma, suspension, top dose 5.24 µM)
- AUC: 0.987
- IC50: > 5.24 µM

Cell Line: NCI-H596 (lung adenocarcinoma, adherent, top dose 5.24 µM)
- AUC: 0.957
- IC50: > 5.24 µM

Cell Line: NCI-H630 (large intestine, adherent, top dose 5.24 µM)
- AUC: 0.987
- IC50: > 5.24 µM

Cell Line: NCI-H647 (non-small cell lung carcinoma, adherent, top dose 5.24 µM)
- AUC: 0.972
- IC50: > 5.24 µM

Cell Line: NCI-H650 (lung adenocarcinoma, adherent, top dose 5.24 µM)
- AUC: 0.968
- IC50: > 5.24 µM

Cell Line: NCI-H661 (large cell lung carcinoma, adherent, top dose 5.24 µM)
- AUC: 0.978
- IC50: > 5.24 µM

Cell Line: NCI-H716 (large intestine, suspension, top dose 5.24 µM)
- AUC: 0.918
- IC50: > 5.24 µM

Cell Line: NCI-H720 (lung carcinoid, suspension, top dose 5.24 µM)
- AUC: 0.981
- IC50: > 5.24 µM

Cell Line: NCI-H727 (lung carcinoid, adherent, top dose 5.24 µM)
- AUC: 0.976
- IC50: > 5.24 µM

Cell Line: NCI-H747 (large intestine, adherent, top dose 5.24 µM)
- AUC: 0.979
- IC50: > 5.24 µM

Cell Line: NCI-H748 (small cell lung carcinoma, suspension, top dose 5.24 µM)
- AUC: 0.947
- IC50: > 5.24 µM

Cell Line: NCI-H810 (large cell lung carcinoma, adherent, top dose 5.24 µM)
- AUC: 0.988
- IC50: > 5.24 µM

Cell Line: NCI-H838 (lung adenocarcinoma, adherent, top dose 5.24 µM)
- AUC: 0.987
- IC50: > 5.24 µM

Cell Line: NCI-H841 (small cell lung carcinoma, adherent, top dose 5.24 µM)
- AUC: 0.976
- IC50: > 5.24 µM

Cell Line: NCI-H847 (small cell lung carcinoma, adherent, top dose 5.24 µM)
- AUC: 0.975
- IC50: > 5.24 µM

Cell Line: NCI-H1048 (small cell lung carcinoma, adherent, top dose 5.24 µM)
- AUC: 0.99
- IC50: > 5.24 µM

Cell Line: NCI-H1092 (small cell lung carcinoma, suspension, top dose 5.24 µM)
- AUC: 0.989
- IC50: > 5.24 µM

Cell Line: NCI-H1155 (large cell lung carcinoma, suspension, top dose 5.24 µM)
- AUC: 0.992
- IC50: > 5.24 µM

Cell Line: NCI-H1299 (large cell lung carcinoma, adherent, top dose 5.24 µM)
- AUC: 0.982
- IC50: > 5.24 µM

Cell Line: NCI-H1304 (small cell lung carcinoma, suspension, top dose 5.24 µM)
- AUC: 0.963
- IC50: > 5.24 µM

Cell Line: NCI-H1355 (lung adenocarcinoma, adherent, top dose 5.24 µM)
- AUC: 0.974
- IC50: > 5.24 µM

Cell Line: NCI-H1395 (lung adenocarcinoma, adherent, top dose 5.24 µM)
- AUC: 0.98
- IC50: > 5.24 µM

Cell Line: NCI-H1417 (small cell lung carcinoma, suspension, top dose 5.24 µM)
- AUC: 0.916
- IC50: > 5.24 µM

Cell Line: NCI-H1435 (lung adenocarcinoma, semi-adherent, top dose 5.24 µM)
- AUC: 0.99
- IC50: > 5.24 µM

Cell Line: NCI-H1436 (small cell lung carcinoma, suspension, top dose 5.24 µM)
- AUC: 0.985
- IC50: > 5.24 µM

Cell Line: NCI-H1437 (lung adenocarcinoma, adherent, top dose 5.24 µM)
- AUC: 0.986
- IC50: > 5.24 µM

Cell Line: NCI-H1563 (lung adenocarcinoma, adherent, top dose 5.24 µM)
- AUC: 0.956
- IC50: > 5.24 µM

Cell Line: NCI-H1568 (lung adenocarcinoma, adherent, top dose 5.24 µM)
- AUC: 0.971
- IC50: > 5.24 µM

Cell Line: NCI-H1573 (lung adenocarcinoma, adherent, top dose 5.24 µM)
- AUC: 0.991
- IC50: > 5.24 µM

Cell Line: NCI-H1581 (large cell lung carcinoma, semi-adherent, top dose 5.24 µM)
- AUC: 0.986
- IC50: > 5.24 µM

Cell Line: NCI-H1623 (lung adenocarcinoma, adherent, top dose 5.24 µM)
- AUC: 0.984
- IC50: > 5.24 µM

Cell Line: NCI-H1648 (lung adenocarcinoma, adherent, top dose 5.24 µM)
- AUC: 0.985
- IC50: > 5.24 µM

Cell Line: NCI-H1651 (lung adenocarcinoma, adherent, top dose 5.24 µM)
- AUC: 0.987
- IC50: > 5.24 µM

Cell Line: NCI-H1666 (lung adenocarcinoma, semi-adherent, top dose 5.24 µM)
- AUC: 0.986
- IC50: > 5.24 µM

Cell Line: NCI-H1688 (small cell lung carcinoma, adherent, top dose 5.24 µM)
- AUC: 0.977
- IC50: > 5.24 µM

Cell Line: NCI-H1693 (lung adenocarcinoma, adherent, top dose 5.24 µM)
- AUC: 0.968
- IC50: > 5.24 µM

Cell Line: NCI-H1694 (small cell lung carcinoma, suspension, top dose 5.24 µM)
- AUC: 0.987
- IC50: > 5.24 µM

Cell Line: NCI-H1703 (lung adenocarcinoma, adherent, top dose 5.24 µM)
- AUC: 0.97
- IC50: > 5.24 µM

Cell Line: NCI-H1734 (lung adenocarcinoma, adherent, top dose 5.24 µM)
- AUC: 0.985
- IC50: > 5.24 µM

Cell Line: NCI-H1755 (lung adenocarcinoma, adherent, top dose 5.24 µM)
- AUC: 0.965
- IC50: > 5.24 µM

Cell Line: NCI-H1770 (non-small cell lung carcinoma, suspension, top dose 5.24 µM)
- AUC: 0.992
- IC50: > 5.24 µM

Cell Line: NCI-H1781 (lung adenocarcinoma, adherent, top dose 5.24 µM)
- AUC: 0.989
- IC50: > 5.24 µM

Cell Line: NCI-H1792 (lung adenocarcinoma, adherent, top dose 5.24 µM)
- AUC: 0.98
- IC50: > 5.24 µM

Cell Line: NCI-H1793 (lung adenocarcinoma, adherent, top dose 5.24 µM)
- AUC: 0.981
- IC50: > 5.24 µM

Cell Line: NCI-H1836 (small cell lung carcinoma, suspension, top dose 5.24 µM)
- AUC: 0.986
- IC50: > 5.24 µM

Cell Line: NCI-H1838 (lung adenocarcinoma, adherent, top dose 5.24 µM)
- AUC: 0.984
- IC50: > 5.24 µM

Cell Line: NCI-H1869 (lung squamous cell carcinoma, adherent, top dose 5.24 µM)
- AUC: 0.976
- IC50: > 5.24 µM

Cell Line: NCI-H1876 (small cell lung carcinoma, adherent, top dose 5.24 µM)
- AUC: 0.987
- IC50: > 5.24 µM

Cell Line: NCI-H1915 (large cell lung carcinoma, adherent, top dose 5.24 µM)
- AUC: 0.984
- IC50: > 5.24 µM

Cell Line: NCI-H1944 (lung adenocarcinoma, adherent, top dose 5.24 µM)
- AUC: 0.935
- IC50: > 5.24 µM

Cell Line: NCI-H1975 (lung adenocarcinoma, adherent, top dose 5.24 µM)
- AUC: 0.974
- IC50: > 5.24 µM
